Laboratory results reported in patent publication US20240261263A1, “COMPOUNDS AND METHODS TO SENSITIZE CANCER CELLS TO TYROSINE KINASE INHIBITORS” (Da Zen Theranostics, Inc., priority 2016, published 2024).

Tests used:
[1] = test system: A549/DDP (Cisplatin Resistant); assay: Crystal Violet cell proliferation assay, A549/DDP; details: A549/DDP, Gefitinib and Icotinib, RO4929097 10-20 uM
H1975 = assay: Crystal Violet cell proliferation assay, H1975; details: H-1975, Gefitinib and Icotinib, RO4929097 10-20 uM
H1650 = assay: Crystal Violet cell proliferation assay, H1650; details: H-1650 (data not shown), Gefitinib and Icotinib, RO4929097 10-20 uM
A549 parental = assay: Crystal Violet cell proliferation assay, A549; details: A549 treated with Gefitinib, RO4929097 10-20 uM

Structure (SMILES): CC(C)(C(=O)NCC(F)(F)C(F)(F)F)C(=O)N[C@@H]1C(=O)Nc2ccccc2-c2ccccc21 [RO4929097]
- Sensitization of cells to TKI by RO4929097 [1]: did not respond consistently
- Sensitization of cells to TKI by RO4929097 (H1975): did not respond consistently
- Sensitization of cells to TKI by RO4929097 (H1650): did not respond consistently
- Sensitization of cells to TKI by RO4929097 (A549 parental): responded after successful sensitization
